The whole screen tested about 310,000 compounds, of which about 2,200 (0.71%) showed an effect of 50% or more. Effects have a minus sign here. This is one part of the list.
Molecular target: human ether-à-go-go-related gene (hERG) potassium channel (human, UniProt Q12809)
Assay: primary screen, population patch clamp on CHO cells stably expressing hERG

Chain of human ether-à-go-go-related gene (hERG) potassium channel (Q12809 whole entry, looked up): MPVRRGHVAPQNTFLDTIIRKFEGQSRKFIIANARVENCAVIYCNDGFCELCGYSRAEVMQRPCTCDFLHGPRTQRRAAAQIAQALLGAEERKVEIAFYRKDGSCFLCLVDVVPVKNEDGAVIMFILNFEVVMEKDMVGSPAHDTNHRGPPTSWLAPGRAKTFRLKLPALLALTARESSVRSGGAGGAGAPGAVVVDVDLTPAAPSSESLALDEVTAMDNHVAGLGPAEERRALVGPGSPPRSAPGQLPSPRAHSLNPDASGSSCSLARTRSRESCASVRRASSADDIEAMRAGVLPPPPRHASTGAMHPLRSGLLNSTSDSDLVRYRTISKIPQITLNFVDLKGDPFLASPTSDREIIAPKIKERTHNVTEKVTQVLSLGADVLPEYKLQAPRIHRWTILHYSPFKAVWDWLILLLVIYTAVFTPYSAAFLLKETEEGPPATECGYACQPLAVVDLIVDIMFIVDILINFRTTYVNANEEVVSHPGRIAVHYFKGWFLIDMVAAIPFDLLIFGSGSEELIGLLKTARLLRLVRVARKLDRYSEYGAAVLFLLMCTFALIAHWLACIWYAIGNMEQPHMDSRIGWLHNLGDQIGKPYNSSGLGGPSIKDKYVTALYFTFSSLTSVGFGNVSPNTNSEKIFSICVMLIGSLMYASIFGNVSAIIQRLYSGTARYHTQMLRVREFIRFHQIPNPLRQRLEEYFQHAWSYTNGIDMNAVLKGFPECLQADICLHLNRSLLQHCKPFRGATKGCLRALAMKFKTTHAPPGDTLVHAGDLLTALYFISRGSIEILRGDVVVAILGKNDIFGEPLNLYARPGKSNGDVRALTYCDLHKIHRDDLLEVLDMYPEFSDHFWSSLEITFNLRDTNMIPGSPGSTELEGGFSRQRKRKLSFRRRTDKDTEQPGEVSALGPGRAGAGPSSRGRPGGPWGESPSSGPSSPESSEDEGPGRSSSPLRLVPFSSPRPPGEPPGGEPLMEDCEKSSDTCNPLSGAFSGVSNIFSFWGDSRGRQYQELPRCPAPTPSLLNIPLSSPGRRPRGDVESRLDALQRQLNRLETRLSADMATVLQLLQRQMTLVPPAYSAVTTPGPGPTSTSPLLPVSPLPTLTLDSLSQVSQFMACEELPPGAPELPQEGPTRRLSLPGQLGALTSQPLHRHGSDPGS

| Structure (SMILES) | hERG current change (%, negative = inhibition) at 1uM [%] |
| --- | --- |
| COc1cccc(CNC(=O)CCC2CCCN(C(=O)c3ccoc3C)C2)c1 (centres unmarked) | 5.59 |
| CCC(C)Nc1nc(-c2ccccn2)nc2ccccc12 (centres unmarked) | -11.6 |
| Nc1nnc(CC(=O)N/N=C/c2ccc(-c3ccc(F)cc3)o2)s1 | 8.53 |
| O=C(Nc1nnc(-c2ccncc2)o1)c1ccc2ccccc2c1 | 6.83 |
| CCCCCOC(=O)NCCOC(=O)Nc1ccc(C(=O)OCC)cc1 | 12.9 |
| CS(=O)(=O)c1ccc(Cl)c(NC(=O)c2ccc3ccccc3c2)c1 | 4.44 |
| CCCCOc1cccc(C(=O)Nc2ccccc2N2CCCC2)c1 | 13.1 |
| Cc1ccc(NC(=O)CSc2nnc(CNC(=O)c3ccco3)o2)cc1 | 16.7 |
| CCCCOc1ccc(N2C(=O)CC(N(CCc3ccccc3)C(=O)/C=C/C(=O)O)C2=O)cc1 (centres unmarked) | 14.4 |
| CC(=O)Nc1ccc(S(=O)(=O)NC2CCCCCC2)cc1 | 15.8 |
| Cc1cc(C)n(-c2ccc(C(=O)NC(C)C)cc2)n1 | -4.87 |
| C[n+]1cn(/N=C/c2ccccc2)c2ccccc21.[I-] | 7.04 |
| CC(NC(=O)Nc1ccc(F)cc1)c1ccc2c(c1)OCO2 (centres unmarked) | 17.1 |
| Cc1ccc(NC(=O)c2noc3c2CC(C(C)(C)C)CC3)cc1 (centres unmarked) | 11.7 |
| COC(=O)Cn1c2ccc(OC)cc2c2nc(C)sc21 | 9.67 |
| O=c1c2c([N+](=O)[O-])cc([N+](=O)[O-])cc2sn1-c1ccc(Br)cc1 | 12.6 |
| Cc1ccc(N=c2c([N+](=O)[O-])nn(-c3ccc(Cl)cc3)n2O)cc1C | 9.06 |
| O=S(=O)(/C=C/c1cccc(Br)c1)N1CCOCC1 | 11.7 |
| CC1(C)Cc2c(cnn2-c2ccccc2)C(NC(=O)CCCn2cncn2)C1 (centres unmarked) | 8.8 |
| Cc1c(/C=N\NC(=O)C2COc3ccc(C(C)(C)C)cc3O2)c2ccccc2n1C (centres unmarked) | 17.5 |

| Structure (SMILES) | hERG current change (%, negative = inhibition) at 1uM [%] |
| --- | --- |
| O=C(NC1CCCCC1)c1ccc(S(=O)(=O)N2CCCC2)cc1 | 7.18 |
| CC(C)CC(c1nnnn1C1CCCC1)N1CCC(C(N)=O)CC1 (centres unmarked) | 15.6 |
| COc1ccc(NC(=O)Nc2nccs2)cc1 | -4.33 |
| Cc1ccccc1-c1ocnc1C(=O)Nc1ccccc1NC(=O)c1ccccn1 | 15.2 |
| O=c1c2ccccc2nc(-c2ccco2)n1-c1nc2ccccc2s1 | 10.6 |
| C/C(=N\NC(=O)C1CC1)c1cccc(NC(=O)c2cccc(Cl)c2)c1 | 13.8 |
| CC(=O)NC12CC3CC(C1)CC(C(=O)N(C)CC(=O)Nc1ccccc1Cl)(C3)C2 | -3.96 |
| O=C(Nc1ccccc1)NC1CC2CCC(C1)N2Cc1nnnn1Cc1ccc2c(c1)OCO2 (centres unmarked) | 3.29 |
| CCn1c(CNC(=O)c2cccc(C)c2)nc2ccccc21 | 9.03 |
| O=C(CSc1nc(=O)n(CCN2CCOCC2)c2c1CCCC2)Nc1ccc(F)cc1F | 0.18 |
| Cc1ccc(S(=O)(=O)N2CCOC2CNC(=O)C(=O)NCc2ccco2)cc1 (centres unmarked) | 9.8 |
| COc1ccc(CN2C(=O)CSC2c2ccncc2)cc1 (centres unmarked) | 9.92 |
| OCCCc1nc2ccccc2n1CCCCOc1ccccc1 | -23.9 |
| CN(C)CCCNCCCNC(=O)/C=N/O | 3.26 |
| O=C1O/C(=C/C(=O)N2CCOCC2)c2ccccc21 | 10.5 |
| COc1cc2c(cc1OC)-c1cc(NC3CCCCCCC3)nc(=O)n1CC2 | 6.28 |
| Cc1cc(C)c(NC(=O)CS(=O)CC(=O)N2CCN(c3ccc(F)cc3)CC2)c(C)c1 (centres unmarked) | -15.6 |
| CCN(CC)N=Nc1cccc(NC(C)=O)c1 | 8.84 |
| O=C(NNc1nc2cc3c(cc2s1)OCCO3)c1ccccc1 | 2.27 |
| O=P(OCC(F)(F)C(F)F)(N1CCOCC1)N1CCOCC1 | -1.74 |

| Structure (SMILES) | hERG current change (%, negative = inhibition) at 1uM [%] |
| --- | --- |
| COc1ccc(CCC(=O)Nc2ccc(OC)c(S(=O)(=O)N3CCCCC3)c2)cc1 | -7.4 |
| CCOc1ccc(-n2c(N)c(C(=O)N3CCN(C)CC3)sc2=S)cc1 | 3.05 |
| CC1=NN(c2ccccc2)C(=O)/C1=C/N(C)C | 9.48 |
| COc1ccc(NC(=O)C2CCN(C(=O)c3ccccc3)CC2)cc1OC | -4.01 |
| CC1CN(C(=O)/C(=C/c2ccco2)NC(=O)c2ccccc2)CC(C)O1 (centres unmarked) | 16.7 |
| Cc1ccc(NC(=O)CCc2c(C)nc3ncnn3c2C)nc1 | 7.07 |
| Cc1oc(-c2cccc(Cl)c2)nc1CSCC(=O)O | 14.6 |
| CCCc1cc(NCCCO)n2c(nc3ccccc32)c1C#N | 10.7 |
| Cn1c(=O)[nH]c(=O)c2c1nc(NC1CCCC1)n2Cc1ccccc1 | 13.4 |
| O=C(COC(=O)CN1C(=O)C2CCCCC2C1=O)NC1CCS(=O)(=O)C1 (centres unmarked) | 1.8 |
| O=C(NCC1CCCO1)c1csc2c1CCCCC2 (centres unmarked) | 4.73 |
| COc1cc(NC(=O)C2CCCN2S(=O)(=O)c2ccc3c(c2)CCC(=O)N3)cc(OC)c1 (centres unmarked) | 6.3 |
| Cc1ccc(NC(=O)C(C)OC(=O)Cn2cnc3ccccc3c2=O)cc1 (centres unmarked) | 11.5 |
| CCOc1ccccc1CN1CCN(C2CCN(c3ccccc3F)CC2)CC1CCO (centres unmarked) | -17.5 |
| O=C(NNC(=O)c1ccccc1Br)c1ccc2nc[nH]c2c1 | 8.58 |
| COc1ccc(S(=O)(=O)NC(C)C(=O)NCc2ccc3c(c2)OCO3)cc1OC (centres unmarked) | 11.1 |
| Cl.O=C(OCCN1CCCCC1)c1ccccc1F | 0.107 |
| Cc1ccc(CNC(=O)C2CCC(=O)N2C(C)C)cc1 (centres unmarked) | 17.1 |
| CCc1nc(NC(C)(C)C)c2cnn(-c3ccccc3)c2n1 | 0.926 |
